Measured values taken from PubChem BioAssay AID720709 (National Center for Advancing Translational Sciences (NCATS), 2013).
Screen size: about 360,000 compounds; about 520 (0.14%) were called active. Inconclusive results, whose numbers are uncertain, are shown with a selection of clear calls. The call rests on the fitted dose curve; in most records, active means well fitted inhibition curve with a large enough effect; inconclusive means small, poorly fitted or top-dose-only effect; inactive means no such curve, though single readings can be large or run the other way. Potencies of inconclusive entries are left out as doubtful fits.

molecular target: Rap guanine nucleotide exchange factor 3 (Homo sapiens) (UniProt O95398); assay: qHTS for Antagonist of cAMP-regulated guanine nucleotide exchange factor 3 (EPAC1): primary screen; conditions: EPAC1 GEF assay, Rap1b-BODIPY-GDP exchange fluorescence; activity change, negative = inhibition: at 115 µM (top of the series); further: nearly all actives have a fitted effect of over 50% in size;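 on activity change, negative = inhibition: plate controls were vehicle for no effect and positive control for full effect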
Chain of UniProt O95398 (O95398 whole entry, looked up): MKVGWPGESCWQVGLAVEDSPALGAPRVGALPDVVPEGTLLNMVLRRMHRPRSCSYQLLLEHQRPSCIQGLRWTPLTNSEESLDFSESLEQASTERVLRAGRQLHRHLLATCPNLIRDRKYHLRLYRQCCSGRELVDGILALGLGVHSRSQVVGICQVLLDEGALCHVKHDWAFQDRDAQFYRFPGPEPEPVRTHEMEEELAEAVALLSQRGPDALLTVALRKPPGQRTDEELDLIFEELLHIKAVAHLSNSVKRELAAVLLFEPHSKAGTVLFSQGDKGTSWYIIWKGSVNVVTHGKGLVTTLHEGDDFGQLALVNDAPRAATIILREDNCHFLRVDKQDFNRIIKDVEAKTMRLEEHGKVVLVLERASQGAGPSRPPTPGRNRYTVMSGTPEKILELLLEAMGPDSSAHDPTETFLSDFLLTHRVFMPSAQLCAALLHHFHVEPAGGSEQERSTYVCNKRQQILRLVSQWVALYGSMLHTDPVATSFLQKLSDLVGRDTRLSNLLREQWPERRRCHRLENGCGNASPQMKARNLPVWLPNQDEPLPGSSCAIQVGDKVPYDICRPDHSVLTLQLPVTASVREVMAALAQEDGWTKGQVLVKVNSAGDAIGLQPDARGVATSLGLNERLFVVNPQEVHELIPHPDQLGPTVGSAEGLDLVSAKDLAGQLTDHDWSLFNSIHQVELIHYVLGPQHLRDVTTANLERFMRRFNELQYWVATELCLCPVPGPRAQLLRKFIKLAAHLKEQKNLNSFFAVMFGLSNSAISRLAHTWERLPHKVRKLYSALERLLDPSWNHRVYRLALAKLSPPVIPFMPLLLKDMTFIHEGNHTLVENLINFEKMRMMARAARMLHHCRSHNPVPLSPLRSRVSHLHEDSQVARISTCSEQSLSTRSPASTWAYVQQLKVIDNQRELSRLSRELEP
Potency means the concentration at half of the fitted maximal effect; tags describe the fitted curve by direction and shape.

Structure (SMILES)	Potency	activity change, negative = inhibition
COc1ccc(C(=S)N2CCOCC2)cc1OC(=O)c1ccccc1Cl	inconclusive [inhibitor, partial curve, poor fit]	
O=[N+]([O-])c1ccc(-c2nc(NCc3ccccc3)c3ccccc3n2)cc1	inconclusive [inhibitor, partial curve]	
Cn1c(=S)[nH]c(=O)c2ncc(=O)[nH]c21		inactive: -19.4%
O=C(CCCOc1ccc(Br)cc1)NCCc1ccc(OC(F)F)cc1		inactive: -7.35%
Cc1ccc([C@@H]2CC=C(C(=O)O)[C@H](c3cccc(Cl)c3)N2S(=O)(=O)c2ccc(C)cc2)cc1	inconclusive [inhibitor, single point]	
O=C1S/C(=C\c2ccc(O)c([N+](=O)[O-])c2)C(=O)N1Cc1cccc([N+](=O)[O-])c1	inconclusive [inhibitor, partial curve]	
CC(C)(C)C1CCC(=NNC(=O)c2cc(-c3ccccc3)n[nH]2)CC1 (configuration not stated)	inconclusive [inhibitor, partial curve]	
CC1(C(=O)NS(=O)(=O)c2ccc3ccccc3c2)CCN1C(=O)C1(c2ccc(Cl)cc2)CCC1 (configuration not stated)	inconclusive [inhibitor, partial curve, poor fit]	
Cc1cc(C)n2nc(S(=O)(=O)N(CC(C)C)CC(C)C)nc2n1	inconclusive [inhibitor, single point]	
Nc1ccccc1Nc1cc(-c2ccccc2)nn1-c1cccc(Cl)c1	inconclusive [inhibitor, partial curve]	
NC(=O)Cc1ccc(C(=O)CSc2nnc(-c3ccncc3)n2C2CC2)s1	inconclusive [inhibitor, partial curve]	
Cc1ccc(-c2nc3ccc(Cl)cc3c(=O)n2O)cc1	inconclusive [inhibitor, full curve, poor fit]	
O=C1NCCNC1(c1c[nH]c2ccccc12)C(F)(F)F (configuration not stated)	inconclusive [inhibitor, single point]	
CCOC(=O)C[C@H]1c2ccc(C(F)(F)F)cc2S(=O)(=O)N1c1ccccc1		inconclusive: -14.8% [inhibitor]
O=C(CSc1nnc(-c2n[nH]c3ccccc23)n1-c1ccccc1)Nc1ccccc1Cl	inconclusive [inhibitor, full curve, poor fit]	
Cc1c2cnn(CC(=O)Nc3c(F)c(F)cc(F)c3F)c(=O)c2c(C)n1Cc1ccccc1F	inconclusive [inhibitor, full curve]	
Cn1c2cc(Br)sc2c2cnn(Cc3ccc(F)cc3F)c(=O)c21	inconclusive [inhibitor, single point]	
CC(/C=C1\SC(=S)N(CC(=O)O)C1=O)=C\c1ccccc1	inconclusive [inhibitor, single point]	
COc1ccc(S(=O)(=O)Nc2cccc3c2O[C@H](CN(C)CC2CC2)[C@@H](C)CN([C@H](C)CO)C3=O)cc1	inconclusive [inhibitor, partial curve]	
C/C(=N\OCC(=O)Nc1ccccc1C(=O)O)c1cccs1		inactive: 11.3%
c1ccc(CNc2nc(NCc3ccccc3)c3ccccc3n2)cc1	inconclusive [inhibitor, single point]	

Structure (SMILES)	Potency	activity change, negative = inhibition
COc1ccc(-c2nc(N)ncc2-c2csc(C)n2)c(O)c1OC		inactive: 6.54%
Cc1cc(C)c2c(=O)c(C#N)coc2c1	inconclusive [inhibitor, partial curve]	
CCc1cccc(NC(=O)CSC2=NS(=O)(=O)c3ccccc32)c1	inconclusive [inhibitor, full curve]	
COc1cccc(NC(=O)c2ccccc2-c2nc(-c3ccc(Cl)cc3)no2)c1	inconclusive [inhibitor, full curve, poor fit]	
Cc1nnc(C)n1/N=C/c1cccs1	inconclusive [inhibitor, full curve, poor fit]	
O=C(N/N=C\C=C\c1ccco1)c1cc(-c2ccc3ccccc3c2)n[nH]1	inconclusive [inhibitor, partial curve]	
CCOc1cc(/C=N/NC(=O)c2cccs2)cc([N+](=O)[O-])c1O	inconclusive [inhibitor, partial curve]	
Cc1noc(C)c1S(=O)(=O)NCC(=O)O	inconclusive [inhibitor, partial curve]	
CCCCCCc1cc2cc(-c3nnc(-c4ccccc4OC)o3)c(=O)oc2cc1O		inactive: 87%
S=c1[nH]c2cc3ccccc3cc2[nH]1		inactive: 9.41%
CC(C)(C)[C@@H]1COC(=O)[C@@H](Cc2ccc(F)cc2)C/C=C\C[C@H](CC(=O)N(CCO)Cc2ccccc2)C(=O)N1	inconclusive [inhibitor, single point]	
Cc1ccc(NC(=O)c2cccc(S(=O)(=O)N3CCN(c4ccc(F)cc4)CC3)c2)nc1	inconclusive [inhibitor, single point]	
COc1ccc(/C=C2\SC(N3CCCCC3)=NC2=O)cc1		inactive: 2.19%
O=C(NC1CCCc2ccccc21)c1ccccc1OC(F)F (configuration not stated)		inactive: -11%
Cc1ccc(C)c(C(C)NC(=O)c2ccc(Br)o2)c1 (configuration not stated)	inconclusive [inhibitor, full curve, poor fit]	
CCN(Cc1ccccc1)C(=S)NC(=O)c1ccccc1Br	inconclusive [inhibitor, single point]	
CCOc1ccc(NC(=O)Nc2cccc(C(=O)O)c2)cc1	inconclusive [inhibitor, full curve]	
CC(C)c1ccc(CNc2nc(NCC3CC3)nc3ccsc23)cc1		inactive: -7.83%
CC1CN(C(=O)/C=C/c2ccc(SC(F)F)cc2)CC(C)O1 (configuration not stated)	inconclusive [inhibitor, single point]	
COc1ccc(CN(CC2CCCO2)S(=O)(=O)c2ccc(-n3cnnn3)c(OC)c2)cc1 (configuration not stated)	inconclusive [inhibitor, single point]	
Oc1c(/C=C/C=C/C=Nc2ccccc2)sc(=S)n1Cc1ccccc1	inconclusive [inhibitor, partial curve, poor fit]	
